Experimental findings from patent US20090026122A1, “BIOCOMPATIBLE SOLID-PHASE MICROEXTRACTION COATINGS AND METHODS FOR THEIR PREPARATION” (Janusz, priority 2002, published 2009) are described below.

This data set concerns human plasma proteins. Briefly: in vitro. Particulars: human plasma (EDTA), Plasma Protein Binding %, 60 μm, human plasma vs PBS.

For orientation: fraction unbound means the share of the substance not bound to proteins or other matrix. A lower fraction unbound goes with extensive binding.

In the case of `CN(C)C(=O)C(CCN1CCC(O)(c2ccc(Cl)cc2)CC1)(c1ccccc1)c1ccccc1` [Loperamide, loperamide], the fraction unbound is, setting by setting: (SPME coating PAN/C-18, 0.01″) 0.04; (SPME coating PAN/RP-amide, 0.01″) 0.03.
